These results are taken from PubChem BioAssay AID1240 (Sanford-Burnham Center for Chemical Genomics, 2008).

Each structure is given as a SMILES string. Among all 50,000 compounds or so, about 800 (1.6%) showed an effect of 50% or more. Some of the results follow.

The assay has as its target Bcl-2-like protein 10 (Homo sapiens) (UniProt Q9HD36). In words: Phenotype converters, Bcl-B/TR3 peptide binding displacement, primary biochemical FP (AID 1240).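 Note: 0% = Bcl-B with tracer peptide and DMSO and 100% = tracer peptide lacking Bcl-B.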 The conditions noted are these: GST-Bcl-B / FITC-TR3 peptide fluorescence polarization; stronger effect = higher value; compound at 3.75 mg/L. Background: In fluorescence polarisation assays a small probe gives low polarisation when free and higher when bound to something large.
Chain of UniProt Q9HD36 (Q9HD36 whole entry, looked up): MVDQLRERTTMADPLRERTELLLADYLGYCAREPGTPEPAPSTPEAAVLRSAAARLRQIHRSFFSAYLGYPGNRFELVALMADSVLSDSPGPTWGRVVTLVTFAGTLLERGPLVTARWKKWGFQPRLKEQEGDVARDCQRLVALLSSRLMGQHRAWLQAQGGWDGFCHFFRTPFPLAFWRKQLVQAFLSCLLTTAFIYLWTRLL
Regarding `CCCOc1cccc(C(=O)Nc2sc(CC)cc2C(=O)OC)c1`, the displacement was found to be 1.7%.

Take `CCN1C(=O)/C(=C\c2cn(CCOc3ccccc3C)c3ccccc23)SC1=S`: the displacement was found to be 127%.

For `Cc1ccc(C(=O)Nc2c(C(=O)N3CCN(Cc4ccccc4)CC3)cnn2-c2ccccc2)cc1`, the displacement is 7.8%.

For `O=C(Nc1ccncc1)Nc1ccccn1`, the displacement was found to be 10.4%.

On to `CCCC(=O)NC(c1ccc(OC)cc1)c1ccc(OCC)cc1` (configuration not stated), for which the displacement is -8.1%.

Take `COc1ccc(C(CC(=O)N2CCOCC2)c2ccccc2)cc1` (configuration not stated): the displacement was -0.6%.

As to `O=C(/C=C/c1ccc(OC2CSC2)cc1)c1ccc(Cl)cc1`, the displacement is -2.4%.

As to `CCOCCOC(=O)c1ccc(NC(=O)COc2cc(C)cc(C)c2)cc1`, the displacement was 19.7%.

For `CCOc1ccc(-c2csc(/C(C#N)=C/c3ccc(Cl)cc3)n2)cc1`, the displacement was 12.8%.

Consider `CC1=C(C(=O)Nc2ccccc2C)C(c2ccccc2Br)NC(=S)N1` (configuration not stated), for which the displacement is 10.8%.

Turning to `CCC(=O)Nc1nc(C)c(-c2csc(Nc3cccc(C(=O)O)c3)n2)s1`, the displacement came out at 34.5%.

With `CCOc1ccccc1N1CCN(C(=O)c2cccc([N+](=O)[O-])c2)CC1`, the displacement was -6.4%.

As to `CC(C)COc1ccc(C(=O)Nc2ccc(Cc3ccncc3)cc2)cc1`, the displacement was -0.2%.

In the case of `O=C(O)COc1ccc(N2C(=O)C3CC=CCC3C2=O)cc1` (configuration not stated), the displacement was -15%.

In the case of `c1ccc(-c2cnnc3c2[nH]c2ccccc23)cc1`, the displacement worked out at 13.6%.

Turning to `CC(C)(C)c1ccc(CSc2nc3ccccc3c(=O)[nH]2)cc1`, the displacement was -0.5%.

For `CCOc1ccc(C(NC(=O)c2ccccc2F)c2ccc(OC)c(OC)c2)cc1` (configuration not stated), the displacement is -5.9%.

Regarding `Cc1ccc(S(=O)(=O)c2nc(N)sc2Cl)cc1`, the displacement was 15.4%.

Consider `COc1cccc(N2C(=O)NC(=O)/C(=C/C=C/c3ccco3)C2=O)c1`, for which the displacement was -47.4%.

Consider `Cc1cc(C)c(NC(=O)c2cncc(Br)c2)c(C)c1`, for which the displacement is 8.3%.

Turning to `NC1=NC(=O)/C(=C/c2ccc(Br)cc2)S1`, the displacement is 3.7%.

Regarding `CCN(CC)S(=O)(=O)c1ccc(C)c(C(=O)O)c1`, the displacement came to 1.5%.

For the compound `COc1cccc(OCCn2c(=O)c3cc4c(=O)n(CCOc5cccc(OC)c5)c(=O)c4cc3c2=O)c1`, the displacement was found to be 1.7%.

As for `O=C1c2ccccc2C(=O)N1Oc1ccc(C(F)(F)F)cc1[N+](=O)[O-]`, the displacement is -1.7%.

In the case of `O=C1c2ccccc2NC(c2ccccc2)N1O` (configuration not stated), the displacement was -0.6%.

With `CC1(C)C(=O)N(Cc2ccccc2)c2ccccc2N1C(=O)c1ccc([N+](=O)[O-])cc1`, the displacement is -1.7%.

For `Cc1cccc(OCCN2CCCCC2)c1`, the displacement amounted to 6.7%.

Turning to `Cc1cc(OCC(=O)Nc2cccc(F)c2)ccc1Cl`, the displacement was -5.3%.

With `CN(C)c1cc(Nc2ccccc2)c2c3c(onc13)-c1ccccc1C2=O`, the displacement came to 0%.

Take `Cc1cc(N2CCOCC2)c2c(N)c(Br)cc(C)c2n1`: the displacement turned out to be 8.1%.

For the compound `COc1ccc(/C=C(\C#N)c2nc3ccccc3[nH]2)cc1OC`, the displacement was 11%.

Turning to `CC(C)=C1C(=O)NN(c2ccccc2)C1=O`, the displacement turned out to be 14.7%.

Regarding `CCOC(=O)C1=C(c2ccccc2)NC(=S)NC1c1ccc(OC)cc1` (configuration not stated), the displacement came to 6.2%.

Turning to `N#C/C(=C\c1ccc(-c2ccc3c(c2)COC3=O)o1)C(N)=O`, the displacement is -10.4%.

On to `COc1cc(/C=C2/SC(=S)N(CC(=O)Nc3nc4ccccc4s3)C2=O)cc(OC)c1OC`, for which the displacement stood at 10.6%.

Consider `O=C(NCCCc1ccccc1)c1cccc(F)c1`, for which the displacement is -1.9%.

Regarding `CCCC(=O)N1c2c(C)cccc2C(Nc2ccccc2C)CC1C` (configuration not stated), the displacement amounted to 0.5%.

With `Cc1cccc(C(=O)O)c1NC(=O)C(C)Oc1ccccc1` (configuration not stated), the displacement is -7.7%.

For the compound `CC(=O)c1cc(F)c(N2CCN(C(=O)c3cccs3)CC2)cc1C`, the displacement was determined as 80%.

Turning to `Cc1ccc(C)c(NC(=O)C2C3CC/C=C\CCC32)c1` (configuration not stated), the displacement is -3.6%.

As for `CCN(CC)S(=O)(=O)c1cccc(C(=O)Nc2ccc(C(C)=O)cc2)c1`, the displacement is -9.7%.

For `COc1ccccc1CC(=O)N1CCN(c2ccccc2)CC1`, the displacement came out at 1.4%.

Turning to `CCOC(=O)c1cccc(NC(=O)c2ccco2)c1`, the displacement was 13.5%.

In the case of `CN(C)CCNC(=O)COc1ccc(C23CC4CC(CC(C4)C2)C3)cc1`, the displacement was -7.9%.

As to `Cc1ccc(S(=O)(=O)C(CC(=O)c2ccccc2)c2ccco2)cc1` (configuration not stated), the displacement is -2.2%.

With `CN1CCN(/N=C/c2ccc(-c3ccc([N+](=O)[O-])cc3Cl)o2)CC1`, the displacement is -26.9%.

On to `Cc1cccc(/C(N)=N/OC(=O)c2cccc(Br)c2)c1`, for which the displacement was 8.8%.

Turning to `CC(C)c1ccc(NC(=O)C(=O)NCc2cccs2)cc1`, the displacement turned out to be 0.5%.

For the compound `CC(=O)n1nc(-c2ccccc2)c(-c2nc3ccccc3[nH]2)c1C`, the displacement is 8.1%.

On to `CC(CCc1ccccc1)Nc1cc(N2CCN(C(=O)c3ccccc3F)CC2)ccc1[N+](=O)[O-]` (configuration not stated), for which the displacement was 10.9%.

On to `COc1ccc(NC(=S)NCc2cccnc2)cc1`, for which the displacement is -2.2%.

As to `CCOC(=O)COc1ccc(/C=C2\C(=O)NC(=O)N(c3ccc(C(C)(C)C)cc3)C2=O)cc1OC`, the displacement was -20.5%.

With `C[n+]1ccc(/C=C/c2ccc3c(c2)OCO3)cc1`, the displacement stood at 13.5%.

Take `CCOC(=O)C1=C(C)N=c2s/c(=C\c3ccco3)c(=O)n2C1/C=C/c1ccccc1` (configuration not stated): the displacement is -32.7%.

With `COP(=O)(OC)C(Nc1cc(Cl)cc(Cl)c1)c1cccc(O)c1` (configuration not stated), the displacement was -14.6%.

In the case of `NC(=O)c1c(NC(=O)c2ccco2)sc2c1CCC2`, the displacement came out at 4.5%.

Regarding `CCC(=O)N(CCc1ccccc1)C1CC(=O)N(c2ccc(F)cc2)C1=O` (configuration not stated), the displacement was -5.8%.

Turning to `NS(=O)(=O)c1ccc(CNC2CC(=O)N(c3cccc(Br)c3)C2=O)cc1` (configuration not stated), the displacement is -5%.

Take `COc1cc(/C=N/NC(=O)c2cccc([N+](=O)[O-])c2)ccc1OCc1ccccc1`: the displacement came to 7.8%.

Consider `O=C(NCCOc1ccc(Cl)cc1Cl)c1cc2ccccc2o1`, for which the displacement is -7.6%.

Regarding `O=S(=O)(Nc1ccc2oc(-c3ccc(I)cc3)nc2c1)c1ccccc1`, the displacement amounted to 4.2%.

In the case of `COc1ccc(NC(=O)C2CC2(c2ccc(C)cc2)c2ccc(C)cc2)cc1` (configuration not stated), the displacement was 1%.

`CCOc1cc(/C=N/O)ccc1OCc1ccc(Cl)cc1`: the displacement is -6%.

On to `Cc1cccc(OCC(=O)Nc2ccc(I)cc2)c1C`, for which the displacement was -2.6%.

For `CCCCOc1ccc(C(CC(=O)O)CC(=O)O)cc1`, the displacement is -7.2%.

Regarding `CCOC(=O)c1ccccc1NC(=O)c1cc(-c2ccccc2C)nc2ccccc12`, the displacement is -5.1%.

With `O=S(=O)(NCc1cccnc1)c1ccc(Cl)cc1`, the displacement is -12%.

Take `O=C(Nc1ccc(Oc2ccccc2)cc1)c1cc(S(=O)(=O)N2CCOCC2)ccc1Cl`: the displacement was -17.1%.

With `O=C(Nc1ccc(I)cc1Cl)c1ccc(OCc2ccccc2)cc1`, the displacement amounted to 6.5%.

For `CCOc1ccc2nc(SCC(=O)Nc3ncccn3)sc2c1`, the displacement was 10%.

Take `COc1ccc(OCCCCNC(C)(C)C)cc1`: the displacement amounted to 8.2%.

As to `O=S(=O)(c1ccc2c(c1)OCCO2)N1CCOCC1`, the displacement is -3.4%.

Consider `O=C(NCc1cccs1)c1nn2c(c1Cl)NC(c1ccco1)CC2C(F)(F)F` (configuration not stated), for which the displacement is 1.6%.

With `Cc1cc(C)cc(NC(=O)CN(Cc2ccccc2)S(=O)(=O)c2ccccc2)c1`, the displacement was determined as 9.1%.

With `Clc1ccc(/C=N/Nc2nccs2)c(Cl)c1`, the displacement is -7.1%.

For the compound `Cc1ccc(CC2C(=O)N(c3ccc(C)cc3)C(=O)C2C)cc1` (configuration not stated), the displacement came out at 2.2%.

For the compound `Fc1cccc(Nc2nc(-c3ccncc3)nc3ccccc23)c1`, the displacement was 0.9%.

With `Cc1cc(C)c(C(=O)/C(=C/c2ccccc2Cl)c2ccccc2)c(=O)[nH]1`, the displacement stood at 11.3%.

Regarding `CCOc1cc(C(=O)Nc2sc3c(c2C(=O)OC)CCCCC3)cc(OCC)c1OCC`, the displacement was -14.2%.

As for `CCOC(=O)c1sc(NC(=O)C2CC=CCC2C(=O)O)c(C(N)=O)c1C` (configuration not stated), the displacement came to 9.4%.

Turning to `CCOc1ccc2nc(NC(=O)c3ccccc3O)sc2c1`, the displacement was -1%.

Take `COc1ccc(C2C(=O)c3ccccc3C2=Nc2cccc(C(C)=O)c2)cc1` (configuration not stated): the displacement came to 2.8%.

For the compound `COC(=O)C1=C(C)NC2=C(C(=O)CCC2)C1c1cc2c(cc1Br)OCO2` (configuration not stated), the displacement was 2.6%.

On to `CC1(C)CC(NC(=O)c2ccc(Cl)cc2)CC(C)(C)N1`, for which the displacement is -14.7%.

For the compound `O=C(Nc1ccccc1C(F)(F)F)c1nn2c(c1Cl)NC(c1ccccc1)CC2C(F)(F)F` (configuration not stated), the displacement came to 12.4%.

Take `CC(=O)Nc1nc2cc3sc(NC(C)=O)nc3cc2s1`: the displacement was found to be 2.5%.

Consider `CCN(CC)c1ccc(NC(=O)c2ccncc2)cc1`, for which the displacement was -0.4%.

Take `C=CCc1cccc(/C=N/NC(=O)c2cc(C34CC5CC(CC(C5)C3)C4)[nH]n2)c1O`: the displacement was -2.6%.

Consider `O=C(NCc1ccc(Cl)cc1)c1cnn2c(C(F)(F)F)cc(-c3ccco3)nc12`, for which the displacement was 11%.

For the compound `Cc1ccc(NCC(=O)N/N=C\c2ccc(OC(=O)c3ccccc3)cc2)cc1`, the displacement came out at 7.2%.

Take `O=C(CC1CCCCC1)Nc1ccccc1`: the displacement is -8.1%.

For the compound `CCN(CC)c1ccc(N=Cc2ccccc2[N+](=O)[O-])cc1`, the displacement is -4.1%.

On to `Cc1ccc(-c2ccc(C=O)o2)c(Br)c1`, for which the displacement is -8.9%.

`CCOC(=O)c1c(NC(=O)c2cc(OCC)c(OCC)c(OCC)c2)sc(C)c1C`: the displacement is -6.2%.

Regarding `COc1ccccc1OCCOc1ccc(Br)cc1/C=c1\sc2nc3ccccc3n2c1=O`, the displacement turned out to be 3.4%.

Consider `CCN(CC)CCCNC(=O)c1cc(Cl)ccc1Cl`, for which the displacement stood at 0.5%.

For `CN(C)S(=O)(=O)c1ccc2c(c1)C(=C(C#N)C#N)c1cc(S(=O)(=O)N(C)C)ccc1-2`, the displacement is -7%.

Consider `O=c1/c(=C/c2ccc(O)cc2)sc2nc3cc(Br)cnc3n12`, for which the displacement is -0.4%.

Regarding `O=C1S/C(=C/c2ccc(-c3ccc([N+](=O)[O-])cc3Cl)o2)C(=O)N1c1ccccc1`, the displacement stood at 47.4%.

As to `CCc1ccccc1N(CC(=O)Nc1ccccc1Cl)S(C)(=O)=O`, the displacement was -6.2%.

Turning to `CCOc1ccccc1C(=O)Nc1c(Cl)cccc1Cl`, the displacement worked out at 4.2%.

In the case of `Nn1cnnc1N/N=C/c1cccc(I)c1`, the displacement amounted to 5.4%.

Consider `CCOn1c(=O)c(=O)n(OCC)c2ccccc21`, for which the displacement worked out at 17.9%.

As to `CC12C=CC(O1)C1C(=O)N(c3cccc(C(=O)O)c3)C(=O)C12` (configuration not stated), the displacement was -8.4%.

`COc1ccc2nc(C)c(CCC(C)=O)c(Cl)c2c1`: the displacement turned out to be 0.3%.

With `O=C1C2C3C=CC(C4CC34)C2C(=O)N1C12CC3CC(CC(C3)C1)C2` (configuration not stated), the displacement turned out to be 1.1%.

For the compound `CCN(CC)c1ccc(NC(=O)c2ccc3ccccc3n2)cc1`, the displacement was 1.3%.

For the compound `CCCOc1cccc(C(=O)NCc2ccncc2)c1`, the displacement was -9.6%.

`N#CCc1nc(-c2ccc([N+](=O)[O-])cc2)cs1`: the displacement is 3%.

Take `Cc1sc(NC(=O)C2CC(O)CN2C(=O)OC(C)(C)C)nc1-c1ccccc1` (configuration not stated): the displacement is -14.9%.

Consider `Cc1ccc(C)c(NC(=O)CC(C)c2ccccc2)c1` (configuration not stated), for which the displacement worked out at 6.5%.

Regarding `CCn1c2ccccc2c2cc(CNc3ccc(C)c(C)c3)ccc21`, the displacement was 7.1%.
